Measured values as given in the supplement of paper PMC11417369.
The list shows a part of the results.

Test system: PfHDP1 homeodomain (GST-tagged)
Experiment: gcPBM binding intensity (ln(normalized median fluorescence intensity)); higher = stronger DNA binding
Method in brief: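 GST-tagged P. falciparum DNA-binding domains, expressed in E. coli (about 25 μg on average), were applied for 1 h to an Agilent 4 × 180k array of primer-extended double-stranded 36-bp intergenic genomic probes plus negative controls. The binding buffer was 1× PBS with 1% milk, 0.2 mg/ml BSA, 0.5% salmon testes DNA and 0.03% Triton X-100. Bound protein was detected with Alexa488 anti-GST antibody and scanned at 488 nm. Binding intensity is the highest Masliner-normalised natural-log median intensity across replicate spots of either probe orientation.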

| Sequence | gcPBM binding intensity (ln) |
| --- | --- |
| AAAAAGGTTATTGGTACACACATATGTATATAAATA [CACACA_site6402] | 6.69 |
| TATTGTTATCTTTTATGTACTTAAAAAAATAAATTT [XGTACX_site4233] | 6.34 |
| TTACAAATAATTTGTTGTACGCTTTTTTTCTTTTTT [XGTACX_site7199] | 6.52 |
| TATATATATATATATGTGCGCATTACTTTAAGAATA | 9.47 |
| GTTAAAAAAAGGAGAGATCTCACACAAATATATATA [GTGCAC_negctrl_site117] | 6.69 |
| GGGTGCCAAATTAGCACACACATATATACCTGAATT [CACACA_site5551] | 7.52 |
| AATATATATGAAAAAAGTACTCAAGGAATAAAAAAA [XGTACX_site7720] | 7.06 |
| CATTTAATAATAACAAGTACACAAAGATGTATAACA [XGTACX_site8315] | 6.14 |
| CATAAATACTATATATGTACGTAATTTTTAAAACAT [XGTACX_site7710] | 6.93 |
| ATGATAAATATAAGTTGTACATATATCTATGTGCAT [XGTACX_site6010] | 7.21 |
| TAAAAAGTTATATTCACACACATACACATATAAATA [CACACA_site6398] | 6.63 |
| AAAAAGGAAATAATAACACACATTAATAATTATAAA [CACACA_site3401] | 6.45 |
| TTATTTTTTTTTTTTTGTACACAATTTGACACATTA [XGTACX_site7983] | 6.68 |
| TTTATTTAATTATGTTGTACATGTAGGATTTATTTT [XGTACX_site7078] | 6.47 |
| TCTGTTCTTTTTTAATGTACAAGAAATATAAAATTC [XGTACX_site3600] | 6.17 |
| AATTTTTAGTATATAACATAAAATAAAATAAAATAA [GTGCAC_negctrl_site696] | 6.47 |
| TAATAAATAATGGTTACACACAAAATATAAAACTTA [CACACA_site3544] | 6.24 |
| AATTATAAATCTTGCACACAAAAAAAATAATAAAAA [CACACA_site2434] | 8.67 |
| AAATCTTTGTGTGGATGTACTTTTATAAAAAAGAAT [XGTACX_site3830] | 6.53 |
| TAAACACATATATAGACATGCAACTAGTTTTTATAA [TGCATGCA_site474] | 6.5 |
| TTTTAAATATGCAGATGTACATTATAATGTTTTATT [XGTACX_site2079] | 6.82 |
| TACATATTTTTATATACACACAATAATTATTATAAA [CACACA_site1659] | 6.75 |
| TATATTTATTATAACACACACATATATATATTATAT [CACACA_site1061] | 6.66 |

| Sequence | gcPBM binding intensity (ln) |
| --- | --- |
| GATATGTACTAATACACACACATATAGATTTATATA [CACACA_site6610] | 6.96 |
| TACACATACACATACACACGCATAGAAACATACGAA [CACACA_site2137] | 7.17 |
| TATGAAAATGTTCATACACACATAAAAAAAAAAAAA [CACACA_site3236] | 6.53 |
| AAAAAAAAAAAAAACACACAAACGCTTTTTTTTTTT [CACACA_site686] | 6.7 |
| TGTTTGAATAACAAAAAAAAAAAAAAAATTAAAAAA [CACACA_negctrl_site1332] | 5.71 |
| ATTTTAAATGTTATGCGTACATATTAATCCTACTTA [XGTACX_site1344] | 6.69 |
| TTTTAAAAATCTATATGTACACAATACGTCTATAAA [XGTACX_site5787] | 6.44 |
| TTTTTATATATCACGTGTACATATTTATTTTTACTC [XGTACX_site8049] | 6.54 |
| GAATCATCCAAAATTGCATGCAAGGAAGAAGAAAAA [TGCATGCA_site764] | 7.05 |
| ATATGTAATAATAAATGTACGAAACATTGAACGATG [XGTACX_site1266] | 6.83 |
| CGTATGAAACATATATGTACTTATAAAAATATAACC [XGTACX_site7539] | 6.56 |
| AAATCACCTTAAGAACGTACAAACAGAAAAAAATTA [XGTACX_site4623] | 6.65 |
| TTTATTATATTTATATGTACTTATATAATATATGCA [XGTACX_site1906] | 6.6 |
| CTTATGTGTATAAGTAGTACTAAATTAAAATAATAT [XGTACX_site2681] | 6.57 |
| TTATAAATATAATATTGTACAAAATTTTAACATGTC [XGTACX_site5259] | 6.57 |
| TTATTTACCATCTCTACACACAAAAATTGATGTAGA [CACACA_site2811] | 6.5 |
| ATATGTATTAAGTGTACACATATAATGTATTTTGTT [CACACA_site4177] | 7.05 |
| TCATAATGAAAACAAGCACACATACATAAAATAAAA [CACACA_site9069] | 6.89 |
| TAAATTATATTATGCACACTTAAAAATATATTTAAC [CACACA_site3512] | 9.29 |
| AAAATAAAAAATATAACACACAATAAATATATATAT [CACACA_site1926] | 8.22 |
| TATACAAAATAACTAGCACACATATGTATAAACATA [CACACA_site9236] | 6.58 |
| TTTTAACTTTTATATTGTACGTTGTTTATTTTATTT [XGTACX_site7504] | 6.86 |
| ATTTCCTGGCTACTGTGTACTGACCTCCAGACTGCT [XGTACX_site2005] | 6.44 |

| Sequence | gcPBM binding intensity (ln) |
| --- | --- |
| ATAATCATTTGGATATTCACAATATTTAAAATTAAA [CACACA_negctrl_site909] | 6.2 |
| GAAAAAAAAAAAAAAAAAAAAAAATTCATTTTTTTT [XGTACX_negctrl_site54] | 5.61 |
| CATAAAAATATTTTCTGTACATATTCATATGACGTT [XGTACX_site3406] | 6.73 |
| TATACATATATAATATGTACATATATTTTTTTTTAA [XGTACX_site2938] | 6.13 |
| ATAAATAAAATTAGGTGTACTTTAATTAAAGAAAAT [XGTACX_site3319] | 6.75 |
| AGGTTCCCAAAATGCACACCAATGAAATTATTTATT [CACACA_site553] | 10.2 |
| ATAAATATTGGGTGCACACACATAATATATATATAT [CACACA_site2272] | 10.5 |
| AAAAAAATATAGATCTGTACATATATAAATATATGT [XGTACX_site511] | 6.21 |
| TCTCTAATTTTTAATACACACAAATAAATAAATAAA [CACACA_site216] | 6.62 |
| ATATATGTTAATAATTGTACAAATCGATAATATATA [XGTACX_site5076] | 7.3 |
| AATGTATATTATTGCACACATATATAAAATTATGCT [CACACA_site1096] | 10.5 |
| ATTTGTGAATATATTCGGTGAACTTTGTTAACACAT [XGTACX_negctrl_site445] | 6.89 |
| ATCTCTATGATATATACACACAAATATACAAAAAAA [CACACA_site6605] | 6.92 |
| TATTATATTTGTATGTGTACTTATATGGTTGTAATA [XGTACX_site4548] | 6.47 |
| ATGGAAAAAAAGCATTGTACATTTAAAGAAAAACAG [XGTACX_site6639] | 6.73 |
| AACGAAAACACTACGTGTACCAAATGTCCTGCCAAC [XGTACX_site5735] | 6.14 |
| AAATATTATCAAACATAAATTATTTTTATCCGTATA [CACACA_negctrl_site771] | 6.12 |
| ATATATATATATATGTGTACACAAAAAATATTATAT [XGTACX_site5741] | 9.26 |
| ATTCAAAAAAAATCAACACACAGTTACATAGCTCAA [CACACA_site2234] | 6.46 |
| ATTCCATAAGTAAACACACAAATGCCAAAATTTTAT [CACACA_site7491] | 6.51 |
| GCACATATATATGAAACACACATGGAAACATCTCTT [CACACA_site3966] | 6.55 |
| AATCTAATTAAAATCACACATATATTCGTCGTAATA [CACACA_site5855] | 6.05 |
| AAAAAATTAACGAGTGCACACATATTTAGATAAAAT [CACACA_site8958] | 10.7 |

| Sequence | gcPBM binding intensity (ln) |
| --- | --- |
| ATATATATATATATAACACACGTGTATTTATCTGTA [CACACA_site5922] | 9.21 |
| TATGTGCACCCATATACACACACAAATACAATGATA [CACACA_site8295] | 10.7 |
| AATTCATATACAAAAAGTACAAACGAAAAATAAAAA [XGTACX_site2900] | 6.62 |
| GTTATATAAAAATATTGTACATTCTATATAAAGTCA [XGTACX_site4418] | 6.32 |
| ATGTTTTATATTATTAATATATATATATATATATAT [CACACA_negctrl_site331] | 8.97 |
| AAAAAAAAAAAAAAATGTACATATAAATAAATATAT [XGTACX_site7248] | 6.39 |
| ACAACATAGAGGGGCACACACATATATACATAAAAA [CACACA_site6954] | 7 |
| TAATATCCATATAAAACACACATCAAGGTTGTTAAC [CACACA_site175] | 6.34 |
| AAAAAAAAAAAAAACACACACATGCACCTCATATTA [CACACA_site556] | 7.77 |
| TTTATTTATTATTAAAGTACTAAATTATATTATTAT [XGTACX_site2565] | 5.95 |
| AGGCATAATTAAAAGTAACAATTATGGAAACGGAGT [GTGCAC_negctrl_site623] | 6.83 |
| ATTTTTGTAATTATTTGTACACATTTATTTATGTGT [XGTACX_site1864] | 6.76 |
| ACTTATTTCGATATGTGTACTTAATATATATATTTA [XGTACX_site6616] | 6.44 |
| AAAAATATTTTGGTTTGTACATATATTTTTACAATA [XGTACX_site8691] | 6.31 |
| ACAAATAAAAATATTACACACACTATTATATTGATA [CACACA_site1494] | 6.4 |
| TTATATTATATATATGTGCACATTTTTAAACTTGGA | 10.7 |
| AAATATTTATATGTTACACACTGTTGATAATTTTCT [CACACA_site1347] | 6.33 |
| GGAAGATGAAAAATAAAGCATGTGCTGTACAAACGA [CACACA_negctrl_site1625] | 6.89 |
| AGACCTTTAATTTGTGTGCACATAATTAGTGTACAT [GTGCAC_site9434] | 10.7 |
| ATTAAAAAAAAAAAAAGTACTTATAATTATACTCGT [XGTACX_site4852] | 6.35 |
